85 molecules from ChEMBL document CHEMBL4888484, “Replenishing the malaria drug discovery pipeline: Screening and hit evaluation of the MMV Hit Generation Library 1 (HGL1) against asexual blood stage Plasmodium falciparum ,using a nano luciferase reporter read-out” (2022) can be followed below.

The structures appear in SMILES notation. Hit rate of the full screen: of about 150,000 compounds, about 540 (0.36%) showed an effect of 50% or more. The list shows a part of the results.

The experiment has as its system Plasmodium falciparum. The experiment can be described thus: Primary screen in NF54 nanoGlo assay, in single point, at 2uM, 72h; a lower Z score goes with more inhibition. The class given is functional, Erythrocyte. To be noted: timepoint 72 hour.
As to `Cc1ccc2ncc(C(=O)OCc3cccc4cn[nH]c34)n2c1`, the “% Inhibition” value is 29% and the Z score is -3.77.
`CC(CO)(CO)NCc1ccc(Cl)cc1Cl`: the “% Inhibition” value is -5% and the Z score worked out at 0.83.
`OC1(Cc2ccccn2)CCN(Cc2nnnn2C2CC2)CC1`: the “% Inhibition” value is on record as -9% and the Z score is 1.43.
As to `Cc1cccc([C@H](CNC(=O)c2cccc(N3C(=O)CCS3(=O)=O)c2)N2CCOCC2)c1`, the “% Inhibition” value came out at 5% and the Z score was -0.98.
`O=C(NCc1cccs1)N1CCC[C@H](Oc2cnccn2)C1`: the “% Inhibition” value is -12% and the Z score is listed as 2.13.
Taken in the same sequence, the figures for `O=C(C(O)C1CCC1)N1CCCC1CCO` (stereo not given) were -8% and 0.97.
On to `CN(Cc1ncnn1C)c1ccc(Br)cc1C#N`, for which the “% Inhibition” value is given as -8% and the Z score is 0.89.
As to `COc1ccc([C@@H](C)NC(=O)N[C@@H]2CCCOC2)c(OC)c1`, the “% Inhibition” value is on record as -1% and the Z score was 0.11.
For `O=C(Nc1cccc2c1OCCC2)[C@H]1CCn2ccnc2C1`, the “% Inhibition” value was -12% and the Z score was determined as 2.28.
In the case of `O=C(C[C@H]1CCOC1)N1CCN(CC2CCC2)CC1`, the “% Inhibition” value worked out at 5% and the Z score is -0.61.
Consider `CCN1C(=O)CCc2cc(N[C@@H](C)CCn3cccn3)ccc21`, for which the “% Inhibition” value is -4% and the Z score turned out to be 0.72.
On to `Cc1noc(C)c1[C@@H]1CCCN1S(=O)(=O)c1ccc(C(C)(C)C)cc1`, for which the “% Inhibition” value is -2% and the Z score is reported as 0.42.
`Cc1ccc(-n2nc(N3CCCN(C(=O)Cc4ccc(Cl)cc4)CC3)ccc2=O)cc1C`: the “% Inhibition” value came out at 10% and the Z score was -1.19.
Taken in the same sequence, the figures for `CC(C)N1CC[C@@H]2[C@H]1C(=O)NC[C@H](CCC(=O)NCc1cccs1)N2C` were 11% and -1.48.
Turning to `O=C([C@H]1CCCN(Cc2ccco2)C1)N1CCN(c2nccs2)CC1`, the “% Inhibition” value is -3% and the Z score is listed as 0.49.
For `c1cnc2c(CN3CCCO[C@@H](CN4CCCCC4)C3)cnn2c1`, the “% Inhibition” value was -7% and the Z score was 0.88.
`O=C(Cn1nc2ccc(C(=O)NCc3ccccc3)cn2c1=O)Nc1ccc2c(c1)CCC2`: the “% Inhibition” value was -21% and the Z score was found to be 1.84.
For `O=C(NC[C@]1(O)CCCc2occc21)c1ccccc1F`, the “% Inhibition” value was 14% and the Z score was -1.72.
Regarding `C[C@@H]1NC(=O)N(c2ccccc2NC(=O)CN(C)Cc2ccc(F)cc2)C1=O`, the “% Inhibition” value was -9% and the Z score is given as 0.9.
As to `COc1ccc(CN2CCC(CN3CCCCC3)CC2)c(F)c1F`, the “% Inhibition” value is on record as -2% and the Z score worked out at 0.43.
For the molecule `CC(C)c1ccc(CC(=O)N2CCn3nc(CCC(=O)O)cc3C2)cc1`, the “% Inhibition” value is given as -14% and the Z score is listed as 1.97.
Take `O=C(CN1C(=O)OC[C@@H]1c1ccccc1)N1CCCCCC1`: the “% Inhibition” value was -3% and the Z score stood at 0.49.
Taken in the same sequence, the figures for `C=C(C)C1OCCC1CNC(=O)c1ccc(Cl)cn1` (stereo not given) were -7% and 0.98.
For `Cc1ncc(CC(=O)NCc2cccnc2Oc2ccccc2F)c(=O)[nH]1`, in that order: -20% and 1.94.
With `CCC=C(C)C(=O)N1CC2(CCOCC2)[C@H]1c1ccccc1`, the “% Inhibition” value was -3% and the Z score is 0.41.
With `CCc1ccccc1NC(=O)CN1N=C(c2ccccc2)c2cc(Cl)ccc2S1(=O)=O`, the “% Inhibition” value was -17% and the Z score is listed as 1.57.
For the molecule `COc1ccc(C(=O)N[C@@H]2CCC[C@@H]2C(=O)NCCc2ccccn2)cn1`, the “% Inhibition” value is reported as -1% and the Z score is 0.19.
For the molecule `O=C(COc1ccc(Cl)cc1Cl)N[C@H]1C[C@H]2C(=O)NCC(=O)N2C1`, the “% Inhibition” value is given as -18% and the Z score came out at 2.22.
Consider `Cc1ccc(N(C)C2CCN(C(=O)C[C@H]3CCCO3)CC2)nn1`, for which the “% Inhibition” value is on record as -4% and the Z score was 0.49.
As to `CN(C(=O)CN(Cc1cscn1)c1ccccc1)C1CC1`, the “% Inhibition” value was -2% and the Z score came to 0.31.
With `Cn1cc(Cl)cc1C(=O)N[C@@](C)(Cn1cccn1)C(N)=O`, the “% Inhibition” value is given as -9% and the Z score is recorded as 1.01.
In the case of `Cc1nc([C@H](C)Nc2ncnc3[nH]cnc23)c(C)s1`, the “% Inhibition” value is on record as -6% and the Z score is 1.09.
For `C=CCC[C@H](O)CN(CCCOC)Cc1ccc(F)cc1F`, the “% Inhibition” value is recorded as -10% and the Z score was 1.49.
As for `COCCN1C(=O)c2ccc(C(=O)Nc3nnc(C(C)C)s3)cc2C1=O`, the “% Inhibition” value is given as -17% and the Z score turned out to be 2.09.
For `CC1(C)CCC[C@H](CNC(=O)c2ccnn2CC(F)F)O1`, in that order: -4% and 0.58.
Take `COc1ccccc1C(=O)Nc1cc(-c2ccoc2C)nn1CCO`: the “% Inhibition” value is -4% and the Z score worked out at 0.56.
`Cc1ccc(CN(C(=O)[C@H]2OCCO[C@H]2C)c2ccc(F)cc2)o1`: the “% Inhibition” value was 8% and the Z score is -0.97.
For `Cn1cc(C(=O)N2CC[C@H](n3cnc4ccccc43)C2)nn1`, the “% Inhibition” value was -15% and the Z score is 1.98.
As to `FC(F)c1cc(C(F)F)n2nc(-c3nnc(-c4cccc(C(F)(F)F)c4)o3)cc2n1`, the “% Inhibition” value is on record as -38% and the Z score stood at 4.43.
For `O=C(c1cc2ccccc2[nH]1)N1CCC(Cn2cnc3ccccc32)CC1`, the “% Inhibition” value is listed as 14% and the Z score is -1.87.
In the case of `COc1ccc2c(c1)OC(C)(C)CN(Cc1cn(C)cn1)C2`, the “% Inhibition” value turned out to be 2% and the Z score is -0.31.
For the molecule `O=C(O)[C@H]1CC[C@@H](C(=O)N(CCc2ccc(F)cc2)Cc2cccnc2)C1`, the “% Inhibition” value was -2% and the Z score turned out to be 0.41.
For `CCN(C(=O)c1sc(-c2cccs2)nc1C)c1ccccc1C`, in that order: 4% and -0.83.
As to `CC1CCN(c2ccc(C(=O)NCCN3CCOCC3)cc2S(=O)(=O)N2CCC(C)CC2)CC1`, the “% Inhibition” value is reported as -12% and the Z score amounted to 1.94.
For `Cc1nc(C)c(S(=O)(=O)NCc2cnn3c2CCCC3)s1`, in that order: -13% and 1.6.
For `CCOc1ccc(OCc2ccc(C(=O)N3CCCCC3)o2)cc1`, in that order: -11% and 1.5.
Taken in the same sequence, the figures for `C[C@@H]1CN(C(=O)C(c2ccccc2)N(C)C)CCN1C(=O)OC(C)(C)C` (stereo not given in full) were 0% and 0.03.
As to `Cc1cccnc1CN(C)Cc1cccc([C@H](C)N(C)C)c1`, the “% Inhibition” value is -4% and the Z score is reported as 0.8.
Regarding `Cc1cc(CN(C)C(=O)c2ccco2)no1`, the “% Inhibition” value was -10% and the Z score is reported as 1.43.
Regarding `Cc1nc2ncccn2c1C(=O)NCc1cnc2c(c1)CCC2`, the “% Inhibition” value is -1% and the Z score worked out at 0.16.
Turning to `CCOC(=O)N1CCC(N2Cc3cccc(C(=O)NCc4ccc(C)cc4)c3C2=O)CC1`, the “% Inhibition” value is 2% and the Z score is recorded as -0.28.
On to `CCN1CCOC(CNCC(C#N)CCC#N)C1` (stereo not given), for which the “% Inhibition” value is reported as -6% and the Z score stood at 0.63.
For `Cc1cc(NC(=O)N2CCC(C#N)CC2)n([C@@H](C)C2CC2)n1`, in that order: -9% and 1.72.
Regarding `CCN(CC)C(=O)N1CCN(C(=O)c2ccccn2)[C@@H]2CS(=O)(=O)C[C@@H]21`, the “% Inhibition” value was -4% and the Z score turned out to be 0.85.
For the molecule `O=C(O)[C@H]1CCCCN1C(=O)Cc1cccc(Br)c1`, the “% Inhibition” value was -4% and the Z score is on record as 0.69.
For `COCCn1nnnc1[C@@H]1CN(c2nc(N)nc3c2CCCC3)CCO1`, in that order: -6% and 0.74.
For the molecule `CCN1C[C@@H](CN(C)C(=O)C2(C)COC2)CC1=O`, the “% Inhibition” value is reported as -2% and the Z score was 0.43.
With `C[C@H](CO)NS(=O)(=O)Cc1ccccc1Cl`, the “% Inhibition” value is listed as -1% and the Z score amounted to 0.15.
As to `O=S1(=O)CC[C@H](c2csc(Cc3c(F)cccc3Cl)n2)C1`, the “% Inhibition” value is reported as -13% and the Z score came out at 1.09.
For `CCCN(CCC)S(=O)(=O)N1CCN(Cc2cccnc2N)CC1`, in that order: -3% and 0.62.
Regarding `FC(F)(F)c1cccc2c(NCc3cccnc3N3CCOCC3)ccnc12`, the “% Inhibition” value is -10% and the Z score is listed as 1.15.
For `CC(C)(CNC(=O)c1ccc2[nH]c(=O)[nH]c2c1)c1cccs1`, the “% Inhibition” value is given as -2% and the Z score turned out to be 0.38.
For `CCc1nnc(NCc2csc(C)n2)s1`, in that order: 9% and -1.19.
For `CC[C@](O)(CCCO)CNC(=O)c1cc(Cl)c(C)c(Cl)c1`, the “% Inhibition” value is -3% and the Z score was found to be 0.65.
`CN(C(=O)Cn1cccc(S(=O)(=O)N2CCCCC2)c1=O)c1ccc(F)cc1`: the “% Inhibition” value is -2% and the Z score was 0.37.
Turning to `O=C(Nc1nc2ccccc2s1)N1CCCCCC1`, the “% Inhibition” value is on record as -16% and the Z score turned out to be 2.45.
Regarding `CC(=O)N1CCN(C(=O)c2nn(-c3ccc(C(C)C)cc3)c(=O)n(Cc3cccc(C)c3)c2=O)CC1`, the “% Inhibition” value is listed as -7% and the Z score is 0.96.
For `Cn1c(C(=O)N2CCOCC2)cc2cc(S(=O)(=O)N3CCCCC3)ccc21`, the “% Inhibition” value is on record as -12% and the Z score amounted to 2.31.
Regarding `O=C(NCCc1ccc(Cl)s1)c1cnccn1`, the “% Inhibition” value was -13% and the Z score is 2.48.
On to `CCc1ccccc1NC(=O)N1CC(F)(F)C[C@H]1CN1CCCCC1`, for which the “% Inhibition” value is on record as -14% and the Z score was 2.44.
On to `O=C(NC[C@H]1CCCO1)c1coc(CN2CCN(c3ncccn3)CC2)n1`, for which the “% Inhibition” value was found to be 2% and the Z score is recorded as -0.28.
As to `C[C@@H](Cc1cccs1)C(=O)N1CCC(Nc2cccnc2)CC1`, the “% Inhibition” value is on record as -17% and the Z score is recorded as 1.44.
Consider `Cc1ccc(C(=O)N[C@@H](Cc2c[nH]c3ccccc23)C(=O)O)cc1F`, for which the “% Inhibition” value is -8% and the Z score is 1.49.
`c1ccc(CNc2cc(-c3ccccc3)nc(-c3ccccc3)n2)cc1`: the “% Inhibition” value is listed as -9% and the Z score turned out to be 1.22.
Taken in the same sequence, the figures for `Cc1nc(C2CCC2)nn1Cc1cnn(-c2ccccc2)n1` were -21% and 2.36.
For `O=C(c1cnc(O)cn1)N1C[C@@H]2CC[C@H]1CN(CCCc1ccccc1)C2`, in that order: 6% and -0.82.
`CC(C)N1CCCC[C@@H]1CCNC(=O)CCC(F)(F)F`: the “% Inhibition” value is given as -3% and the Z score came out at 0.57.
For the molecule `Cc1nc(N)nc(N2CCN(Cc3ccco3)CC2)c1CCC(=O)O`, the “% Inhibition” value was -6% and the Z score stood at 1.13.
Regarding `Cc1ccc(CN(CCO)C(=O)c2cccc3c2CCOC3)o1`, the “% Inhibition” value was -15% and the Z score turned out to be 2.09.
Taken in the same sequence, the figures for `CN1CCO[C@H](C(=O)Nc2cc(-c3c(F)cccc3F)no2)C1` were -6% and 0.69.
In the case of `CCN(Cc1ccncc1)[C@@H](C(=O)O)c1ccc(OC(C)C)cc1`, the “% Inhibition” value was -15% and the Z score turned out to be 2.
Taken in the same sequence, the figures for `COc1ccc(CS(=O)(=O)Cc2nccn2C)c(Cl)c1` were -6% and 0.62.
For `Cc1ccccc1N1C(=O)C2C(O)CCCN2C1=O` (stereo not given), the “% Inhibition” value stood at 5% and the Z score was -0.59.
For the molecule `N[C@@H]1C[C@@H]2CC(C(=O)NCC3CCC=CCC3)C[C@@H]21` (stereo not given in full), the “% Inhibition” value is given as -3% and the Z score was found to be 0.65.
For the molecule `Cc1cnccc1C(=O)NC[C@@H]1C[C@H]1c1cccnc1`, the “% Inhibition” value was -14% and the Z score stood at 1.85.
